Publication PMC9911399, “Two distinct binding modes provide the RNA-binding protein RbFox with extraordinary sequence specificity”
Changes are numbered by the printed parent chain; changes in the protein carry UniProt numbers. This is one part of the list.

T1: RBFOX1 RRM (Homo sapiens, UniProt Q9NWB1 109-208)
T1 sequence: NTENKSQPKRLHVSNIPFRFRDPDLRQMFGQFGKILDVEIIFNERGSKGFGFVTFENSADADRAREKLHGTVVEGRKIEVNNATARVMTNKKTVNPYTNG

B1: GUCAUGG (DNA:RNA)
RNA: GGGAGACCGGAAUUCAGAUUGUCCGUCAUGGUUAAAUCCCGUCGUAGCCACCA
DNA 1: CAATCTGAATTCCGGTCTCCC
DNA 2: TGGTGGCTACGACGGGATT
B2: AUGGAGC (DNA:RNA)
RNA: B1 RNA with G25A, C27G, A28G, U29A, G31C
DNA 1: CAATCTGAATTCCGGTCTCCC
DNA 2: TGGTGGCTACGACGGGATT
B3: UGGAGAU (DNA:RNA)
RNA: B1 RNA with G25U, U26G, C27G, U29G, G30A, G31U
DNA 1: CAATCTGAATTCCGGTCTCCC
DNA 2: TGGTGGCTACGACGGGATT
B4: GCCAAGC (DNA:RNA)
RNA: B1 RNA with U26C, U29A, G31C
DNA 1: CAATCTGAATTCCGGTCTCCC
DNA 2: TGGTGGCTACGACGGGATT
B5: UACUAGC (DNA:RNA)
RNA: B1 RNA with G25U, U26A, A28U, U29A, G31C
DNA 1: CAATCTGAATTCCGGTCTCCC
DNA 2: TGGTGGCTACGACGGGATT
B6: AACGGGA (DNA:RNA)
RNA: B1 RNA with G25A, U26A, A28G, U29G, G31A
DNA 1: CAATCTGAATTCCGGTCTCCC
DNA 2: TGGTGGCTACGACGGGATT
B7: CACCAAG (DNA:RNA)
RNA: B1 RNA with G25C, U26A, A28C, U29A, G30A
DNA 1: CAATCTGAATTCCGGTCTCCC
DNA 2: TGGTGGCTACGACGGGATT
B8: ACGGGAA (DNA:RNA)
RNA: GGGAGACCGGAAUUCAGAUUGUCCACGGGAAUUAAAUCCCGUCGUAGCCACCA
DNA 1: CAATCTGAATTCCGGTCTCCC
DNA 2: TGGTGGCTACGACGGGATT
B9: CUGAACC (DNA:RNA)
RNA: B1 RNA with G25C, C27G, U29A, G30C, G31C
DNA 1: CAATCTGAATTCCGGTCTCCC
DNA 2: TGGTGGCTACGACGGGATT
B10: UCAUACG (DNA:RNA)
RNA: B8 RNA with A25U, G27A, G28U, G29A, A30C, A31G
DNA 1: CAATCTGAATTCCGGTCTCCC
DNA 2: TGGTGGCTACGACGGGATT
B11: UGCGCCG (DNA:RNA)
RNA: B1 RNA with G25U, U26G, A28G, U29C, G30C
DNA 1: CAATCTGAATTCCGGTCTCCC
DNA 2: TGGTGGCTACGACGGGATT
B12: UUAGCUU (DNA:RNA)
RNA: B8 RNA with A25U, C26U, G27A, G29C, A30U, A31U
DNA 1: CAATCTGAATTCCGGTCTCCC
DNA 2: TGGTGGCTACGACGGGATT
B13: ACACGGG (DNA:RNA)
RNA: B8 RNA with G27A, G28C, A30G, A31G
DNA 1: CAATCTGAATTCCGGTCTCCC
DNA 2: TGGTGGCTACGACGGGATT
B14: AACAUCC (DNA:RNA)
RNA: B1 RNA with G25A, U26A, G30C, G31C
DNA 1: CAATCTGAATTCCGGTCTCCC
DNA 2: TGGTGGCTACGACGGGATT
B15: CUUUAAC (DNA:RNA)
RNA: B8 RNA with A25C, C26U, G27U, G28U, G29A, A31C
DNA 1: CAATCTGAATTCCGGTCTCCC
DNA 2: TGGTGGCTACGACGGGATT
B16: AAAUAGG (DNA:RNA)
RNA: B1 RNA with G25A, U26A, C27A, A28U, U29A
DNA 1: CAATCTGAATTCCGGTCTCCC
DNA 2: TGGTGGCTACGACGGGATT
B17: GUCUAUG (DNA:RNA)
RNA: B1 RNA with A28U, U29A, G30U
DNA 1: CAATCTGAATTCCGGTCTCCC
DNA 2: TGGTGGCTACGACGGGATT
B18: UGAGAAC (DNA:RNA)
RNA: B8 RNA with A25U, C26G, G27A, G29A, A31C
DNA 1: CAATCTGAATTCCGGTCTCCC
DNA 2: TGGTGGCTACGACGGGATT
B19: UGGAGCC (DNA:RNA)
RNA: B8 RNA with A25U, C26G, G28A, A30C, A31C
DNA 1: CAATCTGAATTCCGGTCTCCC
DNA 2: TGGTGGCTACGACGGGATT
B20: UCCAUGC (DNA:RNA)
RNA: B1 RNA with G25U, U26C, G31C
DNA 1: CAATCTGAATTCCGGTCTCCC
DNA 2: TGGTGGCTACGACGGGATT
B21: AUGUGCU (DNA:RNA)
RNA: B8 RNA with C26U, G28U, A30C, A31U
DNA 1: CAATCTGAATTCCGGTCTCCC
DNA 2: TGGTGGCTACGACGGGATT
B22: AUAGGGG (DNA:RNA)
RNA: B8 RNA with C26U, G27A, A30G, A31G
DNA 1: CAATCTGAATTCCGGTCTCCC
DNA 2: TGGTGGCTACGACGGGATT
B23: ACUUGUU (DNA:RNA)
RNA: B8 RNA with G27U, G28U, A30U, A31U
DNA 1: CAATCTGAATTCCGGTCTCCC
DNA 2: TGGTGGCTACGACGGGATT
B24: UUACCAU (DNA:RNA)
RNA: B8 RNA with A25U, C26U, G27A, G28C, G29C, A31U
DNA 1: CAATCTGAATTCCGGTCTCCC
DNA 2: TGGTGGCTACGACGGGATT
B25: AGGACUA (DNA:RNA)
RNA: B8 RNA with C26G, G28A, G29C, A30U
DNA 1: CAATCTGAATTCCGGTCTCCC
DNA 2: TGGTGGCTACGACGGGATT
B26: CCUCUAA (DNA:RNA)
RNA: B8 RNA with A25C, G27U, G28C, G29U
DNA 1: CAATCTGAATTCCGGTCTCCC
DNA 2: TGGTGGCTACGACGGGATT
B27: AAAGACC (DNA:RNA)
RNA: B8 RNA with C26A, G27A, G29A, A30C, A31C
DNA 1: CAATCTGAATTCCGGTCTCCC
DNA 2: TGGTGGCTACGACGGGATT
B28: AAGAAAU (DNA:RNA)
RNA: B8 RNA with C26A, G28A, G29A, A31U
DNA 1: CAATCTGAATTCCGGTCTCCC
DNA 2: TGGTGGCTACGACGGGATT
B29: AAAUACC (DNA:RNA)
RNA: B8 RNA with C26A, G27A, G28U, G29A, A30C, A31C
DNA 1: CAATCTGAATTCCGGTCTCCC
DNA 2: TGGTGGCTACGACGGGATT
B30: GACACUC (DNA:RNA)
RNA: B1 RNA with U26A, U29C, G30U, G31C
DNA 1: CAATCTGAATTCCGGTCTCCC
DNA 2: TGGTGGCTACGACGGGATT
B31: CCAUAUA (DNA:RNA)
RNA: B8 RNA with A25C, G27A, G28U, G29A, A30U
DNA 1: CAATCTGAATTCCGGTCTCCC
DNA 2: TGGTGGCTACGACGGGATT

The binders below were run against T1, RBFOX1 RRM (assay: EMSA; HiTS-Eq, 1 nM pool, 10 min; buffer printed only for the single-RNA assays: 10 mM Tris pH 7.5, 150 mM NaCl, 3.4 mM EDTA, 0.001% NP-40, 30 C). Settings: tags: His6 N-terminal (pET28a); label: 5' 32P.
Procedure, shortened: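 These values rest on relative association constants, computed from read-count changes of each RNA species versus the control reaction and normalised to the cognate motif. Reads came from free RNA recovered by 8% native PAGE after purified RbFox RRM (wild type or mutant) at increasing concentrations was equilibrated for 10 min in 50 µL with 1 nM of a 5′-radiolabelled pool with 7 randomized nucleotides and DNA-annealed flanks.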

First: B1
Second: B2
The binding signal of the first is higher: 0.0107 KA relative to UGCAUGU for the first, 0.00976 KA relative to UGCAUGU for the second.

Compared with B3, B4 is lower in binding signal: 0.0283 KA relative to UGCAUGU for the first, 0.0064 KA relative to UGCAUGU for the second.

First: B5
Second: B6
The binding signal of the first is higher: 0.0104 KA relative to UGCAUGU for the first, 0.00903 KA relative to UGCAUGU for the second.

First: B7
Second: B8
The binding signal of the first is lower: 0.00342 KA relative to UGCAUGU for the first, 0.00621 KA relative to UGCAUGU for the second.

First: B9
Second: B10
The binding signal of the first is higher: 0.00609 KA relative to UGCAUGU for the first, 0.0047 KA relative to UGCAUGU for the second.

Compared with B11, B12 is lower in binding signal: 0.0245 KA relative to UGCAUGU for the first, 0.00985 KA relative to UGCAUGU for the second.

Compared with B13, B14 is lower in binding signal: 0.00929 KA relative to UGCAUGU for the first, 0.000235 KA relative to UGCAUGU for the second.

Compared with B15, B16 is lower in binding signal: 0.00844 KA relative to UGCAUGU for the first, 0.00393 KA relative to UGCAUGU for the second.

Compared with B17, B18 is higher in binding signal: 0.01 KA relative to UGCAUGU for the first, 0.0124 KA relative to UGCAUGU for the second.

Compared with B19, B20 is lower in binding signal: 0.0192 KA relative to UGCAUGU for the first, 0.0103 KA relative to UGCAUGU for the second.

First: B21
Second: B22
The binding signal of the first is higher: 0.0154 KA relative to UGCAUGU for the first, 0.00511 KA relative to UGCAUGU for the second.

First: B23
Second: B24
The binding signal of the first is higher: 0.0105 KA relative to UGCAUGU for the first, 0.00195 KA relative to UGCAUGU for the second.

Compared with B25, B26 is lower in binding signal: 0.0141 KA relative to UGCAUGU for the first, 0.00423 KA relative to UGCAUGU for the second.

First: B27
Second: B28
The binding signal of the first is lower: 0.000671 KA relative to UGCAUGU for the first, 0.00494 KA relative to UGCAUGU for the second.

First: B29
Second: B30
The binding signal of the first is lower: 0.00238 KA relative to UGCAUGU for the first, 0.00273 KA relative to UGCAUGU for the second.

B31 was tested, and the binding signal was 0.00195 KA relative to UGCAUGU.
